From the supplement of paper PMC3334620
In all, about 33,000 sequences were measured (“E-score (-0.5 to 0.5)”: median about -0.035, highest 2% from about 0.35 on). The list shows a part of the results.

molecular target: T1, Pdr3 (UniProt P33200); assay: PBM E-score (8-mer binding enrichment) (E-score (-0.5 to 0.5)); higher = stronger / more preferred TF binding; most listed sequences are background and not binding sites; settings: protein concentration: 200 nM; construct: GST-full length
T1 sequence: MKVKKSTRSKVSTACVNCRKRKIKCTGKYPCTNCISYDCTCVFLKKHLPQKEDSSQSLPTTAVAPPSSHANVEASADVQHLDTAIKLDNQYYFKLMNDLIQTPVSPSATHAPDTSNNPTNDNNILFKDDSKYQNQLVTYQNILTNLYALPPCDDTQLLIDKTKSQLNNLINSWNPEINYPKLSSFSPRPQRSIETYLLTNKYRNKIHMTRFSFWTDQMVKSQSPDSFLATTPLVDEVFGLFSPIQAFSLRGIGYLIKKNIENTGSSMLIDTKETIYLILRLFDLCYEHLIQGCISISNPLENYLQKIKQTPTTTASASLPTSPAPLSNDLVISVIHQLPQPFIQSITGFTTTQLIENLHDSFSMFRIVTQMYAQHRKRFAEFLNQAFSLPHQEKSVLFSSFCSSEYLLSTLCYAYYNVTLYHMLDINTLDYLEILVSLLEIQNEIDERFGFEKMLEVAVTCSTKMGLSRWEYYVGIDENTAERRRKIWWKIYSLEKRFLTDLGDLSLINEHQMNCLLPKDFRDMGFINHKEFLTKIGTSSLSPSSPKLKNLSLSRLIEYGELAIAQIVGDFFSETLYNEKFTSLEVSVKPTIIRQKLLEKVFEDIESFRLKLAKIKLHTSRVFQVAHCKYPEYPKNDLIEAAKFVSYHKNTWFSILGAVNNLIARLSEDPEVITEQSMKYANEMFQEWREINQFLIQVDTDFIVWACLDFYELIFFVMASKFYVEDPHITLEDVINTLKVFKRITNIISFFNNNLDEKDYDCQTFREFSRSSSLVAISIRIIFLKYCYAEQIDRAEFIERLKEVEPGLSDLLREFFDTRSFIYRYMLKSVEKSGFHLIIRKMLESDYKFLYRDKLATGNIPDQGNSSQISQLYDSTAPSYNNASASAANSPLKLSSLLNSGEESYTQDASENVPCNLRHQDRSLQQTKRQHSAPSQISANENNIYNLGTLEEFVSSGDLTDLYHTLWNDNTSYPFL
In short: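 Universal all-10-mer Agilent arrays, fresh or stripped once, were converted to double-stranded form by primer extension. GST-tagged yeast transcription factors from PURExpress in vitro transcription/translation, full-length or DNA-binding domain only, were applied at about 100-200 nM and detected with fluorescent anti-GST. After masliner normalisation, the Universal PBM Analysis Suite scored each ungapped eight-base word together with its reverse complement by E-score.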

Row | Sequence | PBM E-score
1 | CACAAGCA | -0.171
2 | GGGCAACA | 0.031
3 | GATGATAA | 0.0161
4 | ATTCAAGG | -0.271
5 | AACTGAGA | -0.222
6 | CCCAATCG | 0.0319
7 | ACCAGCGT | -0.167
8 | ACGGAAAT | 0.452
9 | GAACGCAA | 0.133
10 | CTTGCGAA | 0.131
11 | ACTGCGTC | -0.167
12 | ATCGTCGG | 0.0957
13 | ACTCGTTC | -0.119
14 | TAGCACCA | -0.203
15 | GCGAGTCA | -0.141
16 | CGCAACTC | 0.117
17 | AGGTTAGG | -0.128
18 | AACAAAAA | -0.0088
19 | ACCCAGGT | -0.167
20 | ACTCTTTA | -0.279
21 | AATGCGTA | -0.151
22 | GTGCGTGA | 0.134

Row | Sequence | PBM E-score
23 | CTCGCGCC | 0.0655
24 | AGCGACTA | -0.241
25 | CAAGGCTA | -0.0899
26 | ACATCCTA | -0.218
27 | CTTGCATC | -0.0942
28 | ATGCCGCC | 0.213
29 | AAAAGACC | -0.287
30 | CATGCAAC | 0.0685
31 | CCAGCGAC | -0.106
32 | CTAATAAC | -0.071
33 | AGTATAGG | 0.0506
34 | AGCAATGC | 0.0462
35 | AGATGGGA | -0.2
36 | AGTCGATA | -0.0789
37 | AGACAGAT | 0.0686
38 | ATAAGGCC | -0.0419
39 | AACTCTTG | -0.194
40 | AGTCTGGG | -0.297
41 | AACACGGC | 0.154
42 | GTGCGCCA | 0.0168
43 | GTAAAAAA | 0.00467
44 | TGGCTAAA | -0.145

Row | Sequence | PBM E-score
45 | ATTCCTAA | -0.0375
46 | CTCTGCAA | -0.0431
47 | TGTCATAA | -0.142
48 | GCGACTCC | -0.0745
49 | GATCAAAA | -0.143
50 | AAACGAAG | -0.223
51 | CGACGTTC | -0.144
52 | ATCTTAGA | 0.045
53 | ATTATGTA | 0.0176
54 | GTCGAATA | 0.0155
55 | CATAATGG | -0.103
56 | AGACGGAG | 0.216
57 | ATACGCTA | -0.0771
58 | GATATGAA | 0.00428
59 | CACAGCGA | 0.133
60 | CCGTTACC | 0.228
61 | CGTCTCTC | -0.0562
62 | ACCGGTTG | 0.208
63 | ACTCTTCA | -0.258
64 | CACTAATG | -0.0468
65 | ACCAGTCT | -0.248
66 | GTGACGCA | -0.114

Row | Sequence | PBM E-score
67 | AAGTATAC | -0.0917
68 | ACGTCTGG | -0.166
69 | ACTCCCCC | -0.0859
70 | ACTTGAAC | -0.0736
71 | AGGCAGTA | -0.251
72 | TAACGAAA | 0.0473
73 | GAACATAC | 0.0175
74 | ACAAAAAC | -0.0569
75 | GGCAACAC | 0.0901
76 | TCCGTACA | 0.299
77 | GTATCTAA | 0.0522
78 | CGCAGATA | -0.0667
79 | ATCTCGAC | 0.0627
80 | GAATGGCA | 0.0147
81 | CAGGAGGA | -0.292
82 | GACTACAA | -0.207
83 | ACGAGCGA | -0.185
84 | GCGCACAA | 0.0642
85 | AAGAATAT | -0.103
86 | CTAGTTGC | -0.12
